Publication PMC4336329 (PLoS ONE, 2015)
The campaign covered roughly 310,000 compounds. About 2,200 (0.71%) showed an effect of 50% or more. The effect is printed as a negative number. The list shows a part of the results.

biological target: human ether-à-go-go-related gene (hERG) potassium channel (human, UniProt Q12809); experiment: primary screen, population patch clamp on CHO cells stably expressing hERG
Sequence (Q12809 whole entry, looked up): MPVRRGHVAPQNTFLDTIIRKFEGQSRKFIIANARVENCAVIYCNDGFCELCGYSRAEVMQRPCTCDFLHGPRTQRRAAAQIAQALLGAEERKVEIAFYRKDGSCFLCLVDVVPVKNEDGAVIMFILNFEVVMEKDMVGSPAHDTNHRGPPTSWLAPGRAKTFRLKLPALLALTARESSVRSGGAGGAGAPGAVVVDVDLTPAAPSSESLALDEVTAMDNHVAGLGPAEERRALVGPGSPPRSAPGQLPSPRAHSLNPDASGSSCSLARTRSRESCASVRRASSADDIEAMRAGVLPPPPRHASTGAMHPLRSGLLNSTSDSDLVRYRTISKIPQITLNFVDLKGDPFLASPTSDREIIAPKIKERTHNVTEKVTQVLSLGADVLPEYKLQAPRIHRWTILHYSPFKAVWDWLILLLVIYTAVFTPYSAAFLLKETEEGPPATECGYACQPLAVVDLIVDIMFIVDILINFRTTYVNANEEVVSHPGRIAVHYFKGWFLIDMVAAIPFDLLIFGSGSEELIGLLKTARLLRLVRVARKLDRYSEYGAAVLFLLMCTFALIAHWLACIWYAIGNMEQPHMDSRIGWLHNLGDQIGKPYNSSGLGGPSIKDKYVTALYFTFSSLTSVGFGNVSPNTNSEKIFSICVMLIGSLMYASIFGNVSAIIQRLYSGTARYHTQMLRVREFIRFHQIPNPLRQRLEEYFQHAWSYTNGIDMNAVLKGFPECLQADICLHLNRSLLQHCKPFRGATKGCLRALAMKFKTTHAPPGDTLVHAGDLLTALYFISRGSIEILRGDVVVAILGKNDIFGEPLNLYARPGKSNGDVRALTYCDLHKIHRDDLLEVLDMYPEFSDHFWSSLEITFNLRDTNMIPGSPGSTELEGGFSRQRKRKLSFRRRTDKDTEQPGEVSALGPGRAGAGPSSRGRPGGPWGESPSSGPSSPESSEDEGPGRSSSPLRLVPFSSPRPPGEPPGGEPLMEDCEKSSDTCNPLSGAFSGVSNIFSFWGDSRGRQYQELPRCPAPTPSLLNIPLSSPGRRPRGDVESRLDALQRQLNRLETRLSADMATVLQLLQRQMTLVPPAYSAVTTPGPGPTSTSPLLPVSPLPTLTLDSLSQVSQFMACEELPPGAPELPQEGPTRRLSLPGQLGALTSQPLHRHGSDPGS

Structure (SMILES)	hERG current change (%, negative = inhibition) at 1uM [%]
O=C(CNc1ccc(F)cc1)N/N=C1\CCCc2ccccc21	8.18
O=C(Nc1ccc(F)cc1F)c1cc2n(n1)C(C(F)(F)F)C1CCCCC1N2 (stereo not shown)	10.2
O=C(COC(=O)c1cccs1)Nc1ccc(S(=O)(=O)N2CCOCC2)cc1	6.27
COc1ccc(CCNC(=O)CSc2nnc(Cc3cccn3C)n2C)cc1OC	3.62
Cc1cc(S(=O)(=O)N2CCN(c3ccc(F)cc3)CC2)ccc1-n1cnnn1	3.88
O=C(Nc1ccccc1-c1ccccc1)c1cccc(C(F)(F)F)c1	12.7
Cc1nn(C)c(C(=O)N/N=C/c2ccncc2)c1Cl	7.79
Cc1ccc(-n2nnnc2SCC(=O)NCC2(N3CCCCC3)CCCCC2)c(C)c1	-201
COc1ccc(C(=O)NCc2nnc(SCC(=O)N3CCCCC3)o2)cc1	13.5
Cc1[nH]n(-c2ccccc2)c(=O)c1N=Nc1ccc(F)cc1	12
O=C(c1ccco1)N1CCN(S(=O)(=O)c2ccc3c(c2)CCN3C(=O)C2CC2)CC1	4.55
COc1ccc(C)cc1NC(=O)CSc1nnc2ccc(-c3ccncc3)nn12	-15
O=C(NCCc1c[nH]c2ccccc12)C(=O)NCC1OCCN1S(=O)(=O)c1ccc(F)cc1 (stereo not shown)	-4.12
O=C(Nc1ccc(-c2nnc(-c3ccccc3)o2)cc1)C(F)(F)F	9.73
COC(=O)CCc1c(C)c(C#N)c2nc3ccccc3n2c1N1CCCC1	4.96
Cc1c(C(=O)Nc2ccccc2)sc2nc[nH]c(=O)c12	-8.34
NC(=O)C1(c2ccccc2)CCCN1C(=O)c1ccccc1Br (stereo not shown)	11.7
CCn1c(C)nc2cc(C(=O)NNC(=S)Nc3ccccc3)ccc21	16.1
Cc1nc2ccccc2c(=O)n1NC(=O)c1cccc(Cl)c1	12
C(=N\Nc1nc(N2CCCC2)nc(N2CCCC2)n1)/c1ccncc1	11.2

Structure (SMILES)	hERG current change (%, negative = inhibition) at 1uM [%]
CN(C)S(=O)(=O)c1cccc(N=C2NN=C(c3ccccc3)CS2)c1	9.8
CC(=O)N/N=C/C1=CCC2CC1C2(C)C (stereo not shown)	39.9
O=C(Nc1cccc(F)c1)c1cc(S(=O)(=O)N2CCC3(CC2)OCCO3)ccc1F	4.06
O=C(NCCCN1CCOCC1)C(=O)N/N=C/c1ccc2c(c1)OCO2	17.4
COc1cc(NC(=O)CCN2CCN(c3ccccc3F)CC2)cc(OC)c1	-7.08
O=C(NCCc1ccccn1)c1cc(-c2ccc(Cl)cc2)nc2ccccc12	10.7
NN=C(c1ccccc1)c1ccccc1	13
Nc1nc2ncc(C(=O)c3cc(F)ccc3O)cc2s1	5.05
CCC(CC)c1nc2ccccc2c(=O)[nH]1	2.78
Cc1ccc(C)c(N2CC(C(=O)Nc3cc(C)on3)CC2=O)c1 (stereo not shown)	6.94
CCC(C)Sc1cccc(-c2nc3ccc(C)cn3c2NC2CCCCC2)c1.O=C(O)C(F)(F)F (stereo not shown)	15.9
CCN(C(=O)CSc1nnc(Nc2ccccc2)s1)C1CCS(=O)(=O)C1 (stereo not shown)	-3.14
CCC(Oc1ccccc1)C(=O)NCc1ccc(S(N)(=O)=O)cc1 (stereo not shown)	-0.774
CCOC(=O)C1=C[C@]2(CC)CCCN3CCc4c(n1c1ccccc41)[C@@H]32	-95.5
COc1cc(SC)ccc1C(=O)Nc1nc2ccccc2[nH]1	11.2
CCN1CCN(c2cc(C)c3cc(NC(=O)Cc4ccccc4OC)ccc3n2)CC1	-16.1
Cc1csc(NC(=O)/C=C/c2ccc(C)o2)n1	24.8
Cc1nn(CC(=O)NC(C)c2ccccc2)c(C)c1[N+](=O)[O-] (stereo not shown)	5.15
COC(=O)C1CCN(C(=O)CSc2ccccc2)CC1	4.36
CCOc1ccc(C2C3=C(CCCC3=O)N(CC(=O)O)C3=C2C(=O)CCC3)cc1	9.15

Structure (SMILES)	hERG current change (%, negative = inhibition) at 1uM [%]
CC(C)OC(=O)c1ccc(NC(=O)c2ccccc2)cc1	9.37
CCOc1ccc2nc(NC(=O)C3=NNC(=O)CC3)sc2c1	9.84
Cc1ccc(CC2S/C(=C(/C#N)C(=O)NCc3ccco3)N(c3ccccc3)C2=O)cc1 (stereo not shown)	14.8
COc1ccc(CNC(=O)C(c2ccc(C)o2)N(C(=O)c2snc(C(N)=O)c2N)c2ccccc2OC)cc1 (stereo not shown)	12.5
O=c1[nH]c(CN2CCOCC2)nc2scc(-c3ccccc3)c12	14
Cc1cc(C)c(S(C)(=O)=O)c(Oc2cccc(C(F)(F)F)c2)n1	13.4
O=C(NNC(=O)c1cc(-c2cccnc2)nc2ccccc12)Nc1ccc(Cl)cc1	-6.26
O=C(NC1CC1)c1ccc(F)cc1Cl	14.2
Cc1ccc(-n2nc(C)c(NC(=O)CCl)c2C)cc1	2.44
Cn1c(=O)c2c(nc(NCc3ccccc3)n2C)n(C)c1=O	9.56
Cc1ccc(C)c2[nH]c(=O)c(CCNC(=O)c3ccc(S(=O)(=O)N(C)C)cc3)cc12	11.3
Cc1cc(C)cc(OCC(=O)NCc2cc(C)nc3ccccc23)c1	2.81
CCOC(=O)C(=O)C1=CN(Cc2ccccc2)C=C(C#N)C1	11.5
Oc1ccccc1C(=S)N1CCCCC1	10.4
COc1ccc(NC(=O)NN2CCOCC2)cc1OC	17.4
COc1cccc(CNC(=O)CNS(=O)(=O)c2ccc(Br)s2)c1	15
O=C(COc1ccc(F)cc1)N1CCc2ccccc2C1	4.97
Cc1c(NC(=O)c2cccs2)cccc1-c1nc2ccccc2s1	15.9
